From the supplement of paper PMC10126150
Sequences with one replicate were seen in a single cluster, so their values are uncertain.

What follows are sequences tested on ATP (assay: switch fluorescence ratio, 500 uM ATP over buffer (Cy3 cluster intensity, sum of 5 cycles each) (fold (ratio)); higher = stronger signal-on switching upon ATP binding; sequences stand for … in TCGTCGGCAGCGTCAGATGTGTATAAGAGACAGTTTTTTTTTTTTTTTTTTTTTTTTT…TC). Conditions: aptamer strand: ATP DNA aptamer (quencher-CACCTGGGGGAGTATTGCGGAGGAAGG + anchor), 100 nM annealed; ATP concentration: 500 uM; one replicate.
Method in brief: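 The fluorescence ratio divides summed target-cycle Cy3 intensity by summed buffer-cycle Cy3 intensity for each cluster and is averaged per switch-domain sequence. Cy3-labelled switching-strand clusters on a modified Illumina MiSeq flow-cell were annealed to 100 nM quencher-labelled ATP aptamer, then imaged in selection buffer and again after 15 min with 500 uM ATP at 22 °C. Five such cycles were run, with NaOH stripping and re-annealing between them, and clusters outside 100-1000 RFU were excluded.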
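Also: ATP exposure 15 min at 22 °C before imaging.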

| Sequence | switch fluorescence ratio |
| --- | --- |
| TGAAGGTGTT | 1.19 |
| TGAAGTCCGG | 0.989 |
| TGAATAATGC | 0.953 |
| TGAATAATTG | 0.944 |
| TGAATCCGTG | 0.951 |
| TGAATTGGAG | 1 |
| TGAATTTAAA | 1 |
| TGACAGGTAC | 1.18 |
| TGACAGGTCA | 1.01 |
| TGACATAGAT | 1 |
| TGACATCAGG | 0.992 |
| TGACATGACC | 1.08 |
| TGACATTATC | 1.07 |
| TGACATTCCA | 1.04 |
| TGACATTGCA | 0.986 |
| TGACATTTCT | 0.968 |
| TGACCATCTG | 0.979 |
| TGACCGCGGC | 1.09 |
| TGACCGGGGA | 1.04 |
| TGACCTCTG | 0.977 |
| TGACGAAAGC | 1.44 |
| TGACGAATAG | 1.12 |
| TGACGACTTT | 0.998 |
| TGACGCCTTG | 0.989 |
| TGACGCGTTA | 1.08 |
| TGACGGCCCC | 1.05 |

| Sequence | switch fluorescence ratio |
| --- | --- |
| TGACGGTCGG | 0.997 |
| TGACGGTTAG | 0.986 |
| TGACGTATAA | 1.2 |
| TGACGTCAAG | 0.962 |
| TGACTAGCGT | 0.995 |
| TGACTTACGA | 1.45 |
| TGACTTATC | 1.11 |
| TGACTTCCTG | 0.967 |
| TGACTTGTTG | 0.96 |
| TGAGAAAAGT | 0.986 |
| TGAGAACGGA | 1.01 |
| TGAGAATGT | 1.03 |
| TGAGAATTGT | 1.11 |
| TGAGACAGTA | 1.01 |
| TGAGACCTGC | 0.902 |
| TGAGAGCAG | 1.05 |
| TGAGATGGGC | 0.991 |
| TGAGATTAGA | 0.969 |
| TGAGCAAGAA | 2.29 |
| TGAGCACAA | 1.13 |
| TGAGCTGTCA | 0.957 |
| TGAGGAGAAC | 1.18 |
| TGAGGCTCAT | 0.987 |
| TGAGGCTGA | 1 |
| TGAGGGAGGA | 0.973 |
| TGAGGGCCCT | 1.01 |

| Sequence | switch fluorescence ratio |
| --- | --- |
| TGAGGGGCAC | 0.989 |
| TGAGGGGGA | 0.994 |
| TGAGGGTGGC | 0.946 |
| TGAGGTATCG | 1.01 |
| TGAGGTCTAG | 0.979 |
| TGAGGTGCAC | 0.988 |
| TGAGGTTGGG | 1.01 |
| TGAGGTTTCG | 1 |
| TGAGTCGCCA | 0.978 |
| TGAGTCTAGT | 1.04 |
| TGAGTCTTTG | 1.05 |
| TGAGTGAAGG | 0.918 |
| TGAGTGCATT | 0.992 |
| TGAGTGTTAT | 0.997 |
| TGAGTTCTG | 1.01 |
| TGAGTTCTTT | 1.01 |
| TGAGTTTTAT | 0.992 |
| TGATAAAACC | 1.03 |
| TGATAAATCT | 0.994 |
| TGATACACCG | 1.04 |
| TGATACTTG | 0.981 |
| TGATACTTGC | 1.11 |
| TGATAGACGG | 0.994 |
| TGATAGAGTT | 0.999 |
| TGATAGATTA | 1.06 |
| TGATAGCTCT | 1.02 |

| Sequence | switch fluorescence ratio |
| --- | --- |
| TGATAGTAC | 1.07 |
| TGATATAATA | 1.01 |
| TGATATATCC | 1 |
| TGATATCCCC | 1.08 |
| TGATATCGTT | 1.02 |
| TGATATCTCA | 1.02 |
| TGATATGATA | 0.983 |
| TGATATGCCA | 0.981 |
| TGATCACTAA | 1.02 |
| TGATCCAA | 0.965 |
| TGATCTTGCA | 0.967 |
| TGATGAGTAC | 0.974 |
| TGATGATACA | 0.999 |
| TGATGATTTG | 1 |
| TGATGCAACT | 1.06 |
| TGATGGAAAT | 1 |
| TGATGGGATA | 0.979 |
| TGATGGTAGA | 0.964 |
| TGATGTAGGG | 1 |
| TGATGTGACC | 0.999 |
| TGATTAACAG | 0.99 |
| TGATTACTCC | 1.24 |
| TGATTATCGG | 0.995 |
| TGATTCGATG | 0.948 |
| TGATTTAGTG | 0.965 |
| TGATTTAT | 1 |

| Sequence | switch fluorescence ratio |
| --- | --- |
| TGATTTCTGG | 0.965 |
| TGATTTGTC | 1.04 |
| TGATTTTAGT | 1.02 |
| TGCAAACATT | 1.03 |
| TGCAAGATTA | 1.02 |
| TGCAAGCACA | 1.22 |
| TGCAATCCCG | 1.17 |
| TGCAATTGGA | 1.01 |
| TGCACCAGAG | 1.08 |
| TGCACCGGCG | 0.975 |
| TGCACTAACA | 1.21 |
| TGCACTGATG | 1.05 |
| TGCACTGTTG | 0.997 |
| TGCAGCCGAA | 1.03 |
| TGCAGCTTAT | 1.17 |
| TGCAGGCGGA | 1.01 |
| TGCAGGGTCA | 1.01 |
| TGCATACGCA | 1.05 |
| TGCATATGTC | 1.02 |
| TGCATCATTA | 0.962 |
| TGCATGAGGA | 1.01 |
| TGCATGGTAA | 0.987 |
| TGCATTAGTG | 0.984 |
| TGCATTCTGG | 1.1 |
| TGCATTGGTC | 1.06 |
| TGCCAAAGCG | 0.969 |

| Sequence | switch fluorescence ratio |
| --- | --- |
| TGCCAAAGTG | 1.03 |
| TGCCAAATCC | 1.03 |
| TGCCACGGCG | 0.958 |
| TGCCAGTTTC | 0.978 |
| TGCCATAGTT | 1.01 |
| TGCCATCAGT | 0.98 |
| TGCCATCATT | 0.949 |
| TGCCATTATT | 1.05 |
| TGCCCAGAAG | 1.06 |
| TGCCCATGGC | 1 |
| TGCCCCGCTA | 1.79 |
| TGCCCGGGCG | 0.996 |
| TGCCGAATG | 0.976 |
| TGCCGACCGA | 1.04 |
| TGCCGAGGC | 0.986 |
| TGCCGATCCT | 0.969 |
| TGCCGCAGCG | 1.41 |
| TGCCGCAT | 1.13 |
| TGCCGCCCCG | 1.12 |
| TGCCGCCCGT | 1.16 |
| TGCCGGCTTG | 1.01 |
| TGCCGTTTAG | 1.03 |
| TGCCTATCAC | 1.02 |
| TGCCTATTAT | 0.976 |
| TGCCTCACAC | 1.1 |
| TGCCTCTGTC | 1.06 |

| Sequence | switch fluorescence ratio |
| --- | --- |
| TGCCTGTGTC | 0.924 |
| TGCCTGTTAG | 0.99 |
| TGCCTGTTAT | 1.19 |
| TGCCTTGTGT | 1.01 |
| TGCGAATCGC | 1.06 |
| TGCGACACCC | 1.15 |
| TGCGACGACC | 1.33 |
| TGCGAGCAGA | 0.99 |
| TGCGAGCAGC | 1.11 |
| TGCGAGTCT | 1.1 |
| TGCGAGTGGG | 0.999 |
| TGCGATCTAC | 1.25 |
| TGCGATTAAT | 0.988 |
| TGCGATTTCG | 0.984 |
| TGCGCAGTTT | 1.04 |
| TGCGCATAGC | 1.19 |
| TGCGCTATGC | 2.82 |
| TGCGCTGATA | 1.01 |
| TGCGCTTTCC | 1.41 |
| TGCGGCGGAT | 0.991 |
| TGCGGTACCA | 0.991 |
| TGCGGTATGA | 1.01 |
| TGCGGTCTTC | 1.1 |
| TGCGTACCTG | 1.02 |
| TGCGTCACTT | 1.03 |
| TGCGTCATCG | 1.02 |

| Sequence | switch fluorescence ratio |
| --- | --- |
| TGCGTCGGGA | 1 |
| TGCGTGGCAA | 1.01 |
| TGCGTTCGGT | 1.01 |
| TGCGTTTACA | 0.98 |
| TGCGTTTTGT | 1.02 |
| TGCTAACGAT | 1 |
| TGCTAACGGT | 1.02 |
| TGCTAGGATA | 0.993 |
| TGCTAGTAAC | 1.04 |
| TGCTATCTTA | 0.991 |
| TGCTATGTCA | 0.981 |
| TGCTCAGATT | 1.02 |
| TGCTCCCCTT | 1.61 |
| TGCTCGCAGG | 1.13 |
| TGCTCGCGTA | 1.02 |
| TGCTCGGAAT | 1.23 |
| TGCTCGTTTG | 0.994 |
| TGCTCTCGGT | 0.979 |
| TGCTCTTTAT | 1.01 |
